From article PMC4336329 (PLoS ONE, 2015)
In all, about 310,000 compounds went through this assay and about 14,000 (4.5%) showed an effect of 50% or more. The effect is printed as a negative number. The list shows a part of the results.

target: human ether-à-go-go-related gene (hERG) potassium channel (human, UniProt Q12809); test: primary screen, population patch clamp on CHO cells stably expressing hERG
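Further: peak tail current of the secondary pulse compared with the same well before compound.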

Chain of human ether-à-go-go-related gene (hERG) potassium channel (Q12809 whole entry, looked up): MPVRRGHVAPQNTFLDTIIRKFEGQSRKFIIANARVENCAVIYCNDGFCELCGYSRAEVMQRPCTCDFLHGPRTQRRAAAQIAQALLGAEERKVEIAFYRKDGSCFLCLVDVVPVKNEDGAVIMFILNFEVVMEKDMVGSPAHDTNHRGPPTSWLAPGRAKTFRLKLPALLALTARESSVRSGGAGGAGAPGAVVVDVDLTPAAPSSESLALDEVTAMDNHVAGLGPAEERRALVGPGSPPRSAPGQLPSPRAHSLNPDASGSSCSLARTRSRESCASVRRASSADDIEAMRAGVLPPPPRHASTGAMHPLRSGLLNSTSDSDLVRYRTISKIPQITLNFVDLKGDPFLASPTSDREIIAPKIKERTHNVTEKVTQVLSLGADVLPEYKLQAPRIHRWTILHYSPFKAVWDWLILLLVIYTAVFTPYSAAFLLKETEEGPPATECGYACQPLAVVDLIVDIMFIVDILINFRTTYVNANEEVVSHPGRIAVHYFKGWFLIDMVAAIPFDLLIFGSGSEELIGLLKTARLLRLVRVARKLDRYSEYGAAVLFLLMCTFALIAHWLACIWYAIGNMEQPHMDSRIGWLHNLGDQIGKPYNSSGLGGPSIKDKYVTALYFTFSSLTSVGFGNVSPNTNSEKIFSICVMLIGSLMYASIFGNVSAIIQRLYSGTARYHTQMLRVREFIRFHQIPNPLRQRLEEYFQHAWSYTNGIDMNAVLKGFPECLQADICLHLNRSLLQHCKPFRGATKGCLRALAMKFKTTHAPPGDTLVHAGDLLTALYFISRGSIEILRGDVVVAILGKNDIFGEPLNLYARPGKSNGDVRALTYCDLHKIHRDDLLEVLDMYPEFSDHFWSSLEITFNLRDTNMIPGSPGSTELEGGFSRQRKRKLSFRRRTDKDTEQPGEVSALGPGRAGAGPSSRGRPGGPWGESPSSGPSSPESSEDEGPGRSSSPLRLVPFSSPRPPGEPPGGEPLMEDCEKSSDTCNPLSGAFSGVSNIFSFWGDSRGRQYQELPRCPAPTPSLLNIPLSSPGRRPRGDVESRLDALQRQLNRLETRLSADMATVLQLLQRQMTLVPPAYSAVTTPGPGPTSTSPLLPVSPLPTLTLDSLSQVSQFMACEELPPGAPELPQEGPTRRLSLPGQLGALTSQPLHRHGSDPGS

Row | Compound | hERG current change (%, negative = inhibition) at 10uM [%]
1 | CC1CCCN(CC(=O)c2ccc(Cl)c(Cl)c2)C1 (stereo not shown) | -4.92
2 | COc1ccc(Cc2c(O)[nH]c(=S)[nH]c2=O)cc1 | 13.8
3 | CC(C)(C)NS(=O)(=O)c1cc2c3c(c1)CCN3C(=O)CC2 | 17.4
4 | O=C(Nc1nnc(SCc2ccc(F)cc2)s1)C1=COCCO1 | 0.187
5 | Cc1ccc(NC(=O)Nc2ccc(C(=O)N3CCOCC3)cc2)cc1 | -5.28
6 | S=c1[nH]nc(-c2ccc3c(c2)OCO3)n1-c1ccccc1 | 24.7
7 | Cc1cccc(-c2nnc(-c3cccc(NC(=O)Cc4cccs4)c3)o2)c1 | 10.4
8 | CCC(C(=O)OCC(=O)Nc1ccc(C)c(S(=O)(=O)N2CCOCC2)c1)c1ccccc1 (stereo not shown) | -32.6
9 | CN(C)S(=O)(=O)c1ccc2oc(SCC(=O)Nc3ccccc3F)nc2c1 | 14.7
10 | CC(=O)Nc1ccc(OCC(O)Cn2nc(C)c(C(C)=O)c2C)cc1 (stereo not shown) | -4.23
11 | CC(=O)C1=C(C)Nc2ncnn2C1c1ccccc1OCc1ccccc1 (stereo not shown) | -7.4
12 | Cl.Nc1ccc2nc(CN3CCOCC3)[nH]c2c1 | 10.6
13 | Oc1c(Cl)cc(Cl)cc1C=Nc1ccccc1N1CCCC1 | -4.38
14 | N#Cc1sc2nc(N3CCCCC3)c3c(c2c1N)CCCC3 | -3.56
15 | CCOc1ccccc1NC(=O)CN(c1ccc(OC)cc1)S(=O)(=O)c1c(C)[nH]c(=O)[nH]c1=O | 14.1
16 | Cc1cccc(NC(=O)CSc2nc(N)c(NC(=O)c3cccs3)c(=O)[nH]2)c1 | 13.4
17 | COc1ccccc1C(=O)NNC(=O)C(=O)NC(C)(C)C | 25
18 | Cc1ccc(NC(=O)Nc2nnc(Cc3ccc(F)cc3)s2)cc1 | 14
19 | CS(=O)(=O)N1CCN(Cc2ccccc2C(F)(F)F)CC1 | 4.37
20 | COc1cc(C)c(S(=O)(=O)NC2CC(C)(C)NC(C)(C)C2)cc1C | 4.58
21 | Cc1ccnc(NS(=O)(=O)c2ccc(NC(=O)Cc3ccc(F)cc3)cc2)n1 | 14.2
22 | COCCCNC(=O)/C=C/c1cccc(Cl)c1 | -2.88

Row | Compound | hERG current change (%, negative = inhibition) at 10uM [%]
23 | O=C(CSCc1ccc([N+](=O)[O-])cc1)NCCSCc1ccccc1 | -70.1
24 | Cc1cc(C)c(OCCCCN(C)C)c(Br)c1.O=C(O)C(=O)O | -41.5
25 | O=C(C1=C[C@@H](c2ccc(C(F)(F)F)cc2)C[C@@H](OCc2ccc(CO)cc2)O1)N1CCOCC1 | -14.6
26 | CC(=O)Nc1ccc(C(=O)N/C(=C/c2ccccc2)C(=O)NCc2ccco2)cc1 | -10
27 | CCN(CC)Cc1c(C(=O)N/N=C/c2ccc(OCc3ccccc3C)cc2)nnn1-c1nonc1N | -41.5
28 | Cc1c(C(=O)N(Cc2ccc(Cl)cc2)C2CCS(=O)(=O)C2)oc2ccccc12 (stereo not shown) | -4.85
29 | CC(=O)Nc1cccc(C(=O)N/N=C/c2cccc(C)n2)c1 | 19.9
30 | COc1ccc(-n2cnnc2SCC(=O)Nc2nc(C)c(Cl)cc2Cl)cc1 | -33.7
31 | COCc1c(C(=O)N/N=C\c2ccccn2)nnn1-c1nonc1N | 7.18
32 | CCOC(=O)N1CCc2c(sc3c2c(=O)n(Cc2ccccc2)c(=O)n3Cc2cccc(C)c2)C1 | -4.2
33 | O=C(c1ccccc1F)N1CCC(N2CCCCCC2)CC1 | -10.3
34 | O=c1c(F)cn(C2CCCO2)c(=O)n1Cc1c(Cl)cccc1Cl (stereo not shown) | -10.8
35 | CCN(CC)C(=O)OCc1c(-c2cccc(OC)c2)ncc2ccccc12 | -22.1
36 | COc1ccc(C(=O)NCC(c2cccnc2)N2CCN(c3ccc(F)cc3)CC2)cc1OC (stereo not shown) | -46.1
37 | O=C(CSc1n[nH]c(=O)n1C1CC1)c1ccc(F)cc1 | 4.93
38 | CCn1ncc(/C=N\NC(=O)c2csc3ccccc23)c1C | 4.65
39 | COc1ccc2c(Cl)c(C(N)=O)sc2c1 | 1.91
40 | Nc1cccc(-c2nc3ncccc3o2)c1 | 20.2
41 | Cc1cccc(C(=O)NCC(c2cccs2)N2CCOCC2)c1 (stereo not shown) | 14.6
42 | CCCCn1c(N)c(N(CC(C)C)C(=O)CSc2nnc(C)n2-c2ccc(OC)cc2)c(=O)[nH]c1=O | 10.7
43 | NC(=O)c1cc(S(=O)(=O)N2CCCC2)ccc1OCCOc1ccccc1 | 2.15
44 | CCOc1ccc(-c2c(C(=O)N/N=C/c3cccc(Br)c3)nnn2-c2nonc2N)cc1 | -3.31

Row | Compound | hERG current change (%, negative = inhibition) at 10uM [%]
45 | CN(CCOc1ccc(-c2ccn(S(=O)(=O)c3cccc4ccccc34)n2)cc1)c1ccccn1 | 13.9
46 | Cc1nnc(SCC(=O)N(C)c2ccccc2)n1-n1cccc1 | 11.1
47 | CC1CCCC(C)N1C(=O)Cn1cnc2cc([N+](=O)[O-])ccc2c1=O (stereo not shown) | -9.04
48 | Cc1cccc(CCN2CCN=C2Nc2ccccc2)c1 | -16.8
49 | NC(N)=NS(=O)(=O)c1ccc(NC(=S)NC(=O)c2ccncc2)cc1 | 2.9
50 | O=C(NC1CCCC1)C(c1ccccn1)N(Cc1ccc(F)cc1)C(=O)c1csnn1 (stereo not shown) | -13.9
51 | O=C(CCC(=O)N1CCN(S(=O)(=O)c2ccc(Cl)cc2)CC1)NCc1ccccc1 | -14.8
52 | CC1(C)CC(=O)C2=C(C1)N(c1ccc(F)cc1)C(=O)C2(NC(=O)c1ccccc1)C(F)(F)F (stereo not shown) | 13.4
53 | Cc1ccc(OCc2nnc(SCC(=O)O)n2-c2ccccc2)cc1 | 16.3
54 | N#CCc1nc(C(c2ccccc2)c2ccccc2)no1 | 4.55
55 | O=c1c2ccccc2c(C=NCCO)c(O)n1-c1ccccc1 | 7.97
56 | Cn1nnnc1Sc1ncnc2scc(-c3ccccc3Br)c12 | -4.66
57 | COc1cc(C(=S)N2CCCCC2)ccc1O | 19.4
58 | CC(=O)c1cccc(NC(=O)CCCOc2ccc(C)cc2)c1 | -11.3
59 | CCN(CC)CCCNC(=O)CCn1nc(-c2ccccc2)ccc1=O | -56.8
60 | Cc1nc2n(n1)C(O)c1cc([N+](=O)[O-])ccc1S2 (stereo not shown) | 21.3
61 | COc1ccc(-c2nc3ccccc3c(=O)n2CCCn2ccnc2)cc1 | -49
62 | COc1ccccc1CNC(=O)c1c(-c2ccccc2)nn(-c2ccccc2)c1C | -23.1
63 | COc1cccc(-n2ccnc2SCC(=O)Nc2ccccc2)c1 | -5.46
64 | Cc1cc(N2CCN(c3ccccc3)CC2)nc(NCc2ccccc2)n1 | 4.25
65 | CCN1C(=O)C(CC(=O)N2CCN(C(c3ccccc3)c3ccccc3)CC2)N(CC)C1=O (stereo not shown) | 1.18
66 | Cc1cccc(C(=O)Nc2nnc(SCC(=O)NC3CC3)s2)c1 | 8.55

Row | Compound | hERG current change (%, negative = inhibition) at 10uM [%]
67 | O=C1CCCN1CCCNc1nc2c(S(=O)(=O)c3ccccc3)nnn2c2ccc(Cl)cc12 | -25.4
68 | COc1ccc(C=O)cc1COc1c(F)c(F)cc(F)c1F | -15.7
69 | O=C(NCCCn1ccnc1)C1CC2CCC1C2 (stereo not shown) | 0.144
70 | CCC1CCCCN1C(=S)Nc1ccc(SC(F)F)cc1 (stereo not shown) | -30
71 | O=C(CN1CCN(S(=O)(=O)c2ccc(F)c(F)c2)CC1)Nc1ccccc1C(=O)NC1CC1 | -72.3
72 | CCOC(=O)c1ccc(NC(=O)N2CCN(Cc3cccc(F)c3)CC2)cc1 | -9.28
73 | CC(C)CN(C(=O)Cn1nnc(-c2ccc(F)cc2)n1)C1CCS(=O)(=O)C1 (stereo not shown) | 6.95
74 | CCNC(=S)N(CCc1c(C)[nH]c2ccccc12)Cc1cc(OC)c(OC)c(OC)c1 | -3.86
75 | CCCC(=O)Nc1nnc(SCC(=O)NCc2ccco2)s1 | 0.447
76 | Cc1ccc2occ(-c3nn[nH]n3)c(=O)c2c1 | 11.4
77 | Cc1cccc(C(=O)NCC(=O)NC2CCN(Cc3ccccc3)CC2)c1 | -7.99
78 | CCOc1ccc2[nH]c(=O)c(CN(Cc3nnnn3Cc3ccco3)C3CCCCC3)cc2c1 | 5.58
79 | Cc1cc(C)n(-c2ccc3nnc(C)n3n2)n1 | 10.5
80 | O=C(COC(=O)c1ccc(F)cc1F)NC(=O)Nc1ccc2c(c1)OCCO2 | 1.4
81 | Cc1cc(C)c2cccc(NC(=S)NC(=O)c3ccccc3)c2n1 | -14.5
82 | Cc1ccc(/C([O-])=C(/C(=S)NCc2ccc3c(c2)OCO3)[n+]2ccc(N(C)C)cc2)c(C)c1 | -9.09
83 | Cc1cccc(C)c1Nc1nnc(SCc2cn3cccc(C)c3n2)s1 | -43.1
84 | COC(=O)CSc1nnc(CNc2ccc(F)cc2)o1 | 14.5
85 | CC(C)CC(=O)C1=C(O)C(=O)N(Cc2ccccc2)C1c1ccccc1 (stereo not shown) | 14.5
86 | COCCNC(=O)/C(C#N)=C/c1ccc(-c2ccc(S(=O)(=O)N3CCOCC3)cc2)o1 | -33.2
87 | O=[N+]([O-])c1ccc(-c2nnc(-c3ccccc3)c(NCCCO)n2)cc1 | -67.3
88 | Cc1ccc(Cn2cccc(-c3nc4ccccc4s3)c2=O)cc1 | 11.2
